# According to the supplement of paper PMC8728848:
# The other results are listed elsewhere or left out.
# B1: CVNH0 (Neurospora crassa), Q7S6U4 (protein)
# chain: GSHIGPYMSFHVTAEDARIEVRDNRTILFARLRREDGEWNDASYELDQIIGNNDGHFQWGGQNFTETAEDIRFHPKEGAAEQPILRARLRDCNGEFHDRDVNLTEIVENVNGEFQAKF
# Tests used:
# Test in all cases: glycan array binding signal (z-score within array); higher = stronger binding
# Conditions in all cases: glycan notation: IUPAC condensed, linker removed
# [1] = target: Gal(b1-3)[Neu5Ac(a2-6)]GalNAc
# Procedure, shortened: (§1)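 The binding signal is a Z-score computed within each array. Data were drawn from 3228 arrays in the Consortium for Functional Glycomics database, restricted to those with a known protein sequence. Scores were averaged over arrays of the same protein sequence at different concentrations or buffers, and over linkers, and negative values can be taken as non-binding.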
# [2] = target: Gal(b1-3)[Neu5Ac(a2-6)]GlcNAc
# Procedure, shortened: as §1
# [3] = target: Gal(b1-3)[Neu5Ac(a2-6)]GlcNAc(a1-4)Gal(b1-4)Glc
# Procedure, shortened: as §1
# [4] = target: Gal(b1-3)[Neu5Ac(b2-6)]GlcNAc
# Procedure, shortened: as §1
# [5] = target: Gal(b1-4)GalNAc(a1-3)[Fuc(a1-2)]Gal(b1-4)GlcNAc
# Procedure, shortened: as §1
# [6] = target: Gal(b1-4)GalNAc(b1-3)[Fuc(a1-2)]Gal(b1-4)GlcNAc
# Procedure, shortened: as §1
# [7] = target: Gal(b1-4)Glc
# Procedure, shortened: as §1
# [8] = target: Gal(b1-4)Glc6S
# Procedure, shortened: as §1
# [9] = target: Gal(b1-4)GlcNAc
# Procedure, shortened: as §1
# [10] = target: Gal(b1-4)GlcNAc(b1-2)Man(a1-3)[Gal(b1-4)GlcNAc(b1-2)Man(a1-6)]Man(b1-4)GlcNAc(b1-4)GlcNAc
# Procedure, shortened: as §1
# [11] = target: Gal(b1-4)GlcNAc(b1-3)Gal(b1-4)Glc
# Procedure, shortened: as §1
# [12] = target: Gal(b1-4)GlcNAc(b1-3)Gal(b1-4)GlcNAc
# Procedure, shortened: as §1
# [13] = target: Gal(b1-4)GlcNAc(b1-3)Gal(b1-4)GlcNAc(b1-3)Gal(b1-4)GlcNAc
# Procedure, shortened: as §1
# [14] = target: Gal(b1-4)GlcNAc(b1-3)Gal(b1-4)[Fuc(a1-3)]GlcNAc(b1-3)Gal(b1-4)[Fuc(a1-3)]GlcNAc
# Procedure, shortened: as §1
# [15] = target: Gal(b1-4)GlcNAc(b1-3)GalNAc
# Procedure, shortened: as §1
# [16] = target: Gal(b1-4)GlcNAc(b1-3)[Gal(b1-4)GlcNAc(b1-6)]GalNAc
# Procedure, shortened: as §1
# [17] = target: Gal(b1-4)GlcNAc(b1-6)GalNAc
# Procedure, shortened: as §1
# [18] = target: Gal(b1-4)GlcNAc(b1-6)[Gal(b1-3)]GalNAc
# Procedure, shortened: as §1
# [19] = target: Gal(b1-4)GlcNAc(b1-6)[Gal(b1-3)]GlcNAc
# Procedure, shortened: as §1
# [20] = target: Gal3S(b1-3)GalNAc
# Procedure, shortened: as §1
# [21] = target: Gal3S(b1-3)GlcNAc
# Procedure, shortened: as §1
# [22] = target: Gal3S(b1-3)[Fuc(a1-4)]GlcNAc
# Procedure, shortened: as §1
# [23] = target: Gal3S(b1-4)Glc
# Procedure, shortened: as §1
# [24] = target: Gal3S(b1-4)Glc6S
# Procedure, shortened: as §1
# [25] = target: Gal3S(b1-4)GlcNAc
# Procedure, shortened: as §1
# [26] = target: Gal3S(b1-4)GlcNAc6S
# Procedure, shortened: as §1
# [27] = target: Gal3S6S(b1-4)GlcNAc
# Procedure, shortened: as §1
# [28] = target: Gal3S6S(b1-4)GlcNAc6S
# Procedure, shortened: as §1
# [29] = target: Gal4S(b1-4)GlcNAc
# Procedure, shortened: as §1
# [30] = target: Gal4S6S(b1-4)GlcNAc
# Procedure, shortened: as §1
# [31] = target: Gal6S(b1-4)Glc
# Procedure, shortened: as §1
# [32] = target: Gal6S(b1-4)Glc6S
# Procedure, shortened: as §1
# [33] = target: Gal6S(b1-4)GlcNAc
# Procedure, shortened: as §1
# [34] = target: GalNAc(a1-3)Gal
# Procedure, shortened: as §1
# [35] = target: GalNAc(a1-3)GalNAc
# Procedure, shortened: as §1
# [36] = target: GalNAc(b1-3)Gal(a1-4)Gal(b1-4)GlcNAc
# Procedure, shortened: as §1
# [37] = target: GalNAc(b1-4)GlcNAc
# Procedure, shortened: as §1
# [38] = target: Glc(a1-4)Glc
# Procedure, shortened: as §1
# [39] = target: Glc(a1-6)Glc(a1-6)Glc
# Procedure, shortened: as §1
# [40] = target: Glc(b1-4)Glc
# Procedure, shortened: as §1
# [41] = target: Glc(b1-6)Glc
# Procedure, shortened: as §1
# [42] = target: GlcA(b1-3)Gal
# Procedure, shortened: as §1
# [43] = target: GlcA(b1-6)Gal
# Procedure, shortened: as §1
# [44] = target: GlcNAc(a1-3)Gal(b1-4)GlcNAc
# Procedure, shortened: as §1
# [45] = target: GlcNAc(a1-6)Gal(b1-4)GlcNAc
# Procedure, shortened: as §1
# [46] = target: GlcNAc(b1-2)Gal(b1-3)GlcNAc
# Procedure, shortened: as §1
# [47] = target: GlcNAc(b1-2)Man(a1-3)[GlcNAc(b1-2)Man(a1-6)]Man(b1-4)GlcNAc(b1-4)GlcNAc
# Procedure, shortened: as §1
# [48] = target: GlcNAc(b1-3)Gal
# Procedure, shortened: as §1
# [49] = target: GlcNAc(b1-3)Gal(b1-3)GalNAc
# Procedure, shortened: as §1
# [50] = target: GlcNAc(b1-3)Gal(b1-4)Glc
# Procedure, shortened: as §1
# [51] = target: GlcNAc(b1-3)Gal(b1-4)GlcNAc
# Procedure, shortened: as §1
# [52] = target: GlcNAc(b1-3)Gal(b1-4)GlcNAc(b1-3)Gal(b1-4)GlcNAc
# Procedure, shortened: as §1
# [53] = target: GlcNAc(b1-3)GalNAc
# Procedure, shortened: as §1
# [54] = target: GlcNAc(b1-3)[GlcNAc(b1-4)][GlcNAc(b1-6)]GlcNAc
# Procedure, shortened: as §1
# [55] = target: GlcNAc(b1-3)[GlcNAc(b1-6)]Gal(b1-4)GlcNAc
# Procedure, shortened: as §1
# [56] = target: GlcNAc(b1-3)[GlcNAc(b1-6)]GlcNAc
# Procedure, shortened: as §1
# [57] = target: GlcNAc(b1-4)Gal(b1-4)GlcNAc
# Procedure, shortened: as §1
# [58] = target: GlcNAc(b1-4)GlcNAc(b1-4)GlcNAc
# Procedure, shortened: as §1
# [59] = target: GlcNAc(b1-4)GlcNAc(b1-4)GlcNAc(b1-4)GlcNAc(b1-4)GlcNAc
# Procedure, shortened: as §1
# [60] = target: GlcNAc(b1-4)GlcNAc(b1-4)GlcNAc(b1-4)GlcNAc(b1-4)GlcNAc(b1-4)GlcNAc
# Procedure, shortened: as §1
binder,measurement,setting,value
B1,glycan array binding signal (z-score),[1],-0.422
same,glycan array binding signal (z-score),[2],-0.448
same,glycan array binding signal (z-score),[3],3.5
same,glycan array binding signal (z-score),[4],-0.429
same,glycan array binding signal (z-score),[5],0.502
same,glycan array binding signal (z-score),[6],-0.431
same,glycan array binding signal (z-score),[7],-0.185
same,glycan array binding signal (z-score),[8],-0.423
same,glycan array binding signal (z-score),[9],-0.348
same,glycan array binding signal (z-score),[10],-0.426
same,glycan array binding signal (z-score),[11],1.27
same,glycan array binding signal (z-score),[12],-0.427
same,glycan array binding signal (z-score),[13],-0.432
same,glycan array binding signal (z-score),[14],-0.186
same,glycan array binding signal (z-score),[15],-0.284
same,glycan array binding signal (z-score),[16],0.05
same,glycan array binding signal (z-score),[17],-0.441
same,glycan array binding signal (z-score),[18],-0.375
same,glycan array binding signal (z-score),[19],-0.381
same,glycan array binding signal (z-score),[20],-0.424
same,glycan array binding signal (z-score),[21],-0.419
same,glycan array binding signal (z-score),[22],-0.416
same,glycan array binding signal (z-score),[23],-0.23
same,glycan array binding signal (z-score),[24],0.76
same,glycan array binding signal (z-score),[25],-0.192
same,glycan array binding signal (z-score),[26],-0.421
same,glycan array binding signal (z-score),[27],-0.42
same,glycan array binding signal (z-score),[28],-0.411
same,glycan array binding signal (z-score),[29],-0.403
same,glycan array binding signal (z-score),[30],-0.413
same,glycan array binding signal (z-score),[31],-0.372
same,glycan array binding signal (z-score),[32],-0.362
same,glycan array binding signal (z-score),[33],-0.425
same,glycan array binding signal (z-score),[34],-0.409
same,glycan array binding signal (z-score),[35],-0.394
same,glycan array binding signal (z-score),[36],3.29
same,glycan array binding signal (z-score),[37],-0.412
same,glycan array binding signal (z-score),[38],-0.391
same,glycan array binding signal (z-score),[39],2.74
same,glycan array binding signal (z-score),[40],2.35
same,glycan array binding signal (z-score),[41],3.13
same,glycan array binding signal (z-score),[42],-0.25
same,glycan array binding signal (z-score),[43],-0.428
same,glycan array binding signal (z-score),[44],-0.408
same,glycan array binding signal (z-score),[45],-0.422
same,glycan array binding signal (z-score),[46],-0.349
same,glycan array binding signal (z-score),[47],-0.413
same,glycan array binding signal (z-score),[48],-0.416
same,glycan array binding signal (z-score),[49],-0.4
same,glycan array binding signal (z-score),[50],-0.428
same,glycan array binding signal (z-score),[51],-0.4
same,glycan array binding signal (z-score),[52],-0.43
same,glycan array binding signal (z-score),[53],-0.424
same,glycan array binding signal (z-score),[54],-0.391
same,glycan array binding signal (z-score),[55],-0.429
same,glycan array binding signal (z-score),[56],-0.428
same,glycan array binding signal (z-score),[57],-0.397
same,glycan array binding signal (z-score),[58],-0.399
same,glycan array binding signal (z-score),[59],-0.374
same,glycan array binding signal (z-score),[60],0.522
